The list shows a part of the results.
Molecular target: T1, MBP-FoxP1dN (Mus musculus, UniProt P58462 326-579)
T1 sequence: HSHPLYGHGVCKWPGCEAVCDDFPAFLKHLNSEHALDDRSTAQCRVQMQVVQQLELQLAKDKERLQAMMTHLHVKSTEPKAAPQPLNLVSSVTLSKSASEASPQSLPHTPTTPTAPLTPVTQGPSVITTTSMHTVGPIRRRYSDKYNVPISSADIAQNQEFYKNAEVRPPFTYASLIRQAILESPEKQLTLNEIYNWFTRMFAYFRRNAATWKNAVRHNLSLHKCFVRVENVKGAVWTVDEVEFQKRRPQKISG
Assay: PD-seq (MBP pull-down with sequencing); 20 mM Tris-HCl pH 7.5, 100 mM NaCl, 1.5 mM MgCl2, 0.4 uM protein, 0.1 uM dsDNA library, 30 min, room temperature, amylose pull-down; high values mean tight binding
Settings: protein: recombinant; tags: His6-MBP; chain copies: 2; dsDNA, one strand shown
In short: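 Amylose resin was used to capture complexes formed during 30 min at room temperature in Tris pH 7.5 buffer with NaCl and MgCl2 between 0.4 µM His6-MBP-tagged mouse FoxP3 or FoxP1 fragment lacking the N-terminus, expressed in E. coli, and 0.1 µM Klenow-filled double-stranded degenerate DNA library. After three washes, the DNA was released with proteinase K, barcoded by PCR and sequenced on Illumina. Binding is pooled-replicate reads-per-million enrichment, pull-down over input.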

| Sequence | binding signal |
| --- | --- |
| GATGATTGTTCTCCCAGCTGATGAATTGTTTTCATCGAGTAAACAAATTTTCCTAATCTTTCTGTTCAAGCGCCATCTAC | 1.96 RPM ratio (pull-down/input) |
| GATGATTGTTCTCCCAGCTGATGAATTTATTCGCTCGAGTAAACAAATTTTCCTAATCTTTCTGTTCAAGCGCCATCTAC | 1.13 RPM ratio (pull-down/input) |
| GATGATTGTTCTCCCAGCTGATGAATTCTTAAGATCGAGTAAACAAATTTTCCTAATCTTTCTGTTCAAGCGCCATCTAC | 0.893 RPM ratio (pull-down/input) |
| GATGATTGTTCTCCCAGCTGATGAATTAACTCCCTCGAGTAAACAAATTTTCCTAATCTTTCTGTTCAAGCGCCATCTAC | 0.791 RPM ratio (pull-down/input) |
| GATGATTGTTCTCCCAGCTGATGAATTCCGGCATTCGAGTAAACAAATTTTCCTAATCTTTCTGTTCAAGCGCCATCTAC | 0.921 RPM ratio (pull-down/input) |
| GATGATTGTTCTCCCAGCTGATGAATTACAAGAATCGAGTAAACAAATTTTCCTAATCTTTCTGTTCAAGCGCCATCTAC | 1.3 RPM ratio (pull-down/input) |
| GATGATTGTTCTCCCAGCTGATGAATTTATAAGGTCGAGTAAACAAATTTTCCTAATCTTTCTGTTCAAGCGCCATCTAC | 0.946 RPM ratio (pull-down/input) |
| GATGATTGTTCTCCCAGCTGATGAATTACTCTACTCGAGTAAACAAATTTTCCTAATCTTTCTGTTCAAGCGCCATCTAC | 1.08 RPM ratio (pull-down/input) |
| GATGATTGTTCTCCCAGCTGATGAATTTGTGTTTTCGAGTAAACAAATTTTCCTAATCTTTCTGTTCAAGCGCCATCTAC | 2.61 RPM ratio (pull-down/input) |
| GATGATTGTTCTCCCAGCTGATGAATTATGTGACTCGAGTAAACAAATTTTCCTAATCTTTCTGTTCAAGCGCCATCTAC | 1.08 RPM ratio (pull-down/input) |
| GATGATTGTTCTCCCAGCTGATGAATTCCCCTACTCGAGTAAACAAATTTTCCTAATCTTTCTGTTCAAGCGCCATCTAC | 0.809 RPM ratio (pull-down/input) |
| GATGATTGTTCTCCCAGCTGATGAATTTCCGTAGTCGAGTAAACAAATTTTCCTAATCTTTCTGTTCAAGCGCCATCTAC | 0.846 RPM ratio (pull-down/input) |
| GATGATTGTTCTCCCAGCTGATGAATTTAGACGTTCGAGTAAACAAATTTTCCTAATCTTTCTGTTCAAGCGCCATCTAC | 1.01 RPM ratio (pull-down/input) |
| GATGATTGTTCTCCCAGCTGATGAATTTTTCTGGTCGAGTAAACAAATTTTCCTAATCTTTCTGTTCAAGCGCCATCTAC | 0.947 RPM ratio (pull-down/input) |
| GATGATTGTTCTCCCAGCTGATGAATTTTCATCTTCGAGTAAACAAATTTTCCTAATCTTTCTGTTCAAGCGCCATCTAC | 0.905 RPM ratio (pull-down/input) |
| GATGATTGTTCTCCCAGCTGATGAATTTGCCTGTTCGAGTAAACAAATTTTCCTAATCTTTCTGTTCAAGCGCCATCTAC | 0.909 RPM ratio (pull-down/input) |
| GATGATTGTTCTCCCAGCTGATGAATTGTTTCGATCGAGTAAACAAATTTTCCTAATCTTTCTGTTCAAGCGCCATCTAC | 1.09 RPM ratio (pull-down/input) |
| GATGATTGTTCTCCCAGCTGATGAATTGAGGGTTTCGAGTAAACAAATTTTCCTAATCTTTCTGTTCAAGCGCCATCTAC | 0.859 RPM ratio (pull-down/input) |
| GATGATTGTTCTCCCAGCTGATGAATTAGCTATTTCGAGTAAACAAATTTTCCTAATCTTTCTGTTCAAGCGCCATCTAC | 1.02 RPM ratio (pull-down/input) |
| GATGATTGTTCTCCCAGCTGATGAATTCAAGTTGTCGAGTAAACAAATTTTCCTAATCTTTCTGTTCAAGCGCCATCTAC | 1.2 RPM ratio (pull-down/input) |

| Sequence | binding signal |
| --- | --- |
| GATGATTGTTCTCCCAGCTGATGAATTGATTGCGTCGAGTAAACAAATTTTCCTAATCTTTCTGTTCAAGCGCCATCTAC | 1.24 RPM ratio (pull-down/input) |
| GATGATTGTTCTCCCAGCTGATGAATTGTAGCTCTCGAGTAAACAAATTTTCCTAATCTTTCTGTTCAAGCGCCATCTAC | 1.03 RPM ratio (pull-down/input) |
| GATGATTGTTCTCCCAGCTGATGAATTTGAAGTATCGAGTAAACAAATTTTCCTAATCTTTCTGTTCAAGCGCCATCTAC | 0.93 RPM ratio (pull-down/input) |
| GATGATTGTTCTCCCAGCTGATGAATTCACGCGATCGAGTAAACAAATTTTCCTAATCTTTCTGTTCAAGCGCCATCTAC | 0.933 RPM ratio (pull-down/input) |
| GATGATTGTTCTCCCAGCTGATGAATTAGGTGCATCGAGTAAACAAATTTTCCTAATCTTTCTGTTCAAGCGCCATCTAC | 1.28 RPM ratio (pull-down/input) |
| GATGATTGTTCTCCCAGCTGATGAATTACTCAGATCGAGTAAACAAATTTTCCTAATCTTTCTGTTCAAGCGCCATCTAC | 1.07 RPM ratio (pull-down/input) |
| GATGATTGTTCTCCCAGCTGATGAATTCTCCGTTTCGAGTAAACAAATTTTCCTAATCTTTCTGTTCAAGCGCCATCTAC | 0.851 RPM ratio (pull-down/input) |
| GATGATTGTTCTCCCAGCTGATGAATTACCAGAATCGAGTAAACAAATTTTCCTAATCTTTCTGTTCAAGCGCCATCTAC | 1.17 RPM ratio (pull-down/input) |
| GATGATTGTTCTCCCAGCTGATGAATTTAGGAGCTCGAGTAAACAAATTTTCCTAATCTTTCTGTTCAAGCGCCATCTAC | 0.796 RPM ratio (pull-down/input) |
| GATGATTGTTCTCCCAGCTGATGAATTCGCTTGTTCGAGTAAACAAATTTTCCTAATCTTTCTGTTCAAGCGCCATCTAC | 0.927 RPM ratio (pull-down/input) |
| GATGATTGTTCTCCCAGCTGATGAATTTAGACGATCGAGTAAACAAATTTTCCTAATCTTTCTGTTCAAGCGCCATCTAC | 0.941 RPM ratio (pull-down/input) |
| GATGATTGTTCTCCCAGCTGATGAATTTCGCTTCTCGAGTAAACAAATTTTCCTAATCTTTCTGTTCAAGCGCCATCTAC | 0.866 RPM ratio (pull-down/input) |
| GATGATTGTTCTCCCAGCTGATGAATTTGGGCGATCGAGTAAACAAATTTTCCTAATCTTTCTGTTCAAGCGCCATCTAC | 0.894 RPM ratio (pull-down/input) |
| GATGATTGTTCTCCCAGCTGATGAATTTATTATCTCGAGTAAACAAATTTTCCTAATCTTTCTGTTCAAGCGCCATCTAC | 1.41 RPM ratio (pull-down/input) |
| GATGATTGTTCTCCCAGCTGATGAATTGAGGTAGTCGAGTAAACAAATTTTCCTAATCTTTCTGTTCAAGCGCCATCTAC | 0.86 RPM ratio (pull-down/input) |
| GATGATTGTTCTCCCAGCTGATGAATTGAGCTGATCGAGTAAACAAATTTTCCTAATCTTTCTGTTCAAGCGCCATCTAC | 0.869 RPM ratio (pull-down/input) |
| GATGATTGTTCTCCCAGCTGATGAATTCTGTGGCTCGAGTAAACAAATTTTCCTAATCTTTCTGTTCAAGCGCCATCTAC | 0.917 RPM ratio (pull-down/input) |
| GATGATTGTTCTCCCAGCTGATGAATTCTCGTAGTCGAGTAAACAAATTTTCCTAATCTTTCTGTTCAAGCGCCATCTAC | 0.927 RPM ratio (pull-down/input) |
| GATGATTGTTCTCCCAGCTGATGAATTGCCTATATCGAGTAAACAAATTTTCCTAATCTTTCTGTTCAAGCGCCATCTAC | 0.991 RPM ratio (pull-down/input) |
| GATGATTGTTCTCCCAGCTGATGAATTCTCAGAATCGAGTAAACAAATTTTCCTAATCTTTCTGTTCAAGCGCCATCTAC | 0.904 RPM ratio (pull-down/input) |

From paper PMC12820563, “FoxP3 forms a head-to-head dimer in vivo and stabilizes its multimerization on adjacent microsatellites”
